Source: paper PMC10320511
No constants are given. Whether binding was seen depends on the method and setting. Binding seen in cells or lysates may run through a third protein. Some binding calls cover weakened binding; strength is not graded here. Where a sequence is shown, tags or fusion partners need not be part of it.

Amino acid sequences for entries named in this document (tags omitted).
UniProt Q01371: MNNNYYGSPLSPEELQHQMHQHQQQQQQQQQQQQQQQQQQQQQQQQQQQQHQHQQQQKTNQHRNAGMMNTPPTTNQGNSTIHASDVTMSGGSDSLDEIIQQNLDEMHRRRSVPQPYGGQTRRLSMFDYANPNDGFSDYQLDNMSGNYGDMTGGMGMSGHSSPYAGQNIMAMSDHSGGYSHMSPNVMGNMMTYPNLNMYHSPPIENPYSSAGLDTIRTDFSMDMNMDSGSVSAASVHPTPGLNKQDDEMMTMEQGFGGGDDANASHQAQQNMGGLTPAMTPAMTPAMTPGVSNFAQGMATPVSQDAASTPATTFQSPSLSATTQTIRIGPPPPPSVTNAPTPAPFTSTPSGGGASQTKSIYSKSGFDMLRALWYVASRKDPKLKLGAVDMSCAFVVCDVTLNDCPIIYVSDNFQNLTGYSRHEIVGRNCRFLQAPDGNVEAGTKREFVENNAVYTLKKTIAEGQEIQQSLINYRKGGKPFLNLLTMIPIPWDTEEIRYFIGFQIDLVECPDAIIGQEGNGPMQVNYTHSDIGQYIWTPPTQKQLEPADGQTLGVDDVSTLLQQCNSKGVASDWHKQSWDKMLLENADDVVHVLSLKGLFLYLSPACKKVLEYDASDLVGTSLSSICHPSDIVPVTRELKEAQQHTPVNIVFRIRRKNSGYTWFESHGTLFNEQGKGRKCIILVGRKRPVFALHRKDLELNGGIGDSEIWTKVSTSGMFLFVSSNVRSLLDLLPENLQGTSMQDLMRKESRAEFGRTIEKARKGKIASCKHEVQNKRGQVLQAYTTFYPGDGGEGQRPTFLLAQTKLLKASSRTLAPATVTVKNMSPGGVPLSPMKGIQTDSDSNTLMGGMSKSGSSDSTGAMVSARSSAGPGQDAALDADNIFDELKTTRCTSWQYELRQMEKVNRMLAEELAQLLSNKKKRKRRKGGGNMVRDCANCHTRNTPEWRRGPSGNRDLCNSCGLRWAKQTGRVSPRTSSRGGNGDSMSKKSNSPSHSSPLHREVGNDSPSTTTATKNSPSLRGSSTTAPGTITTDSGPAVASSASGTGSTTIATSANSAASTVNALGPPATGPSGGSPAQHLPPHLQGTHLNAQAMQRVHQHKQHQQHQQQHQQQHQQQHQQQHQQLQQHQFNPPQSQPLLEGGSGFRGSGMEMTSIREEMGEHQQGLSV

Assays:
[1] = biological target: T1, FRQ Δ604–646, V5H6-tagged (Neurospora crassa) (UniProt P19970); test: co-IP; V5H6-tagged FRQ (wild type or mutant) pulled down with V5 agarose from Neurospora lysate (cultures in the light, 25 °C); 50 mM Hepes pH 7.4, 137 mM NaCl, 10% glycerol, 0.4% NP-40; 4 °C, 2 h; Western blot with FRQ, FRH, WC-1 and WC-2 antibodies
T1 sequence: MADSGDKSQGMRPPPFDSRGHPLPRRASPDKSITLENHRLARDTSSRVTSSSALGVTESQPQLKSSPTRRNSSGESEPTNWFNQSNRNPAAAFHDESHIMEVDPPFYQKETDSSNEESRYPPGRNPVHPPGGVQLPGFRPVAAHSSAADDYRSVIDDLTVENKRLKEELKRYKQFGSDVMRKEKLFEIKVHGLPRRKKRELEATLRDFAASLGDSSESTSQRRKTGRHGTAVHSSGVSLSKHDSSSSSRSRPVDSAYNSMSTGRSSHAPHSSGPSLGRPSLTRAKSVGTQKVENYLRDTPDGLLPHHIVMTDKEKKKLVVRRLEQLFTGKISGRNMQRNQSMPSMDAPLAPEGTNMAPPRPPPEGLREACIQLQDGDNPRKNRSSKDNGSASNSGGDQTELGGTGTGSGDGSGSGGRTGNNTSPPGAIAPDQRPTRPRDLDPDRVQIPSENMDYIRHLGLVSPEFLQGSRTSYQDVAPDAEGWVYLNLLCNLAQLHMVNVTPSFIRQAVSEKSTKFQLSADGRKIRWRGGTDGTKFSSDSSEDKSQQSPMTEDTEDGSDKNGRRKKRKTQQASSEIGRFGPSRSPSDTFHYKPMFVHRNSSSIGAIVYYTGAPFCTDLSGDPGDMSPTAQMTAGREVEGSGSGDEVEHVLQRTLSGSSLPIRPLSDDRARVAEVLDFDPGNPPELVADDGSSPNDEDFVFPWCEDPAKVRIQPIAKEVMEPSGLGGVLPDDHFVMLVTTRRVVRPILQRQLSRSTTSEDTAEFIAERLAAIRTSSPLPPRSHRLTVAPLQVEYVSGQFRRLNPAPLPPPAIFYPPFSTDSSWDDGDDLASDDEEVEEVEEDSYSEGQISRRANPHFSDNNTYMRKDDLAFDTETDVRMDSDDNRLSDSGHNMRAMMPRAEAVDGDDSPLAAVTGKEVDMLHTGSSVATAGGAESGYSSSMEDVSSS

[2] = biological target: T2, FRQ D660E, V5H6-tagged (Neurospora crassa) (UniProt P19970); test: as above
T2 sequence: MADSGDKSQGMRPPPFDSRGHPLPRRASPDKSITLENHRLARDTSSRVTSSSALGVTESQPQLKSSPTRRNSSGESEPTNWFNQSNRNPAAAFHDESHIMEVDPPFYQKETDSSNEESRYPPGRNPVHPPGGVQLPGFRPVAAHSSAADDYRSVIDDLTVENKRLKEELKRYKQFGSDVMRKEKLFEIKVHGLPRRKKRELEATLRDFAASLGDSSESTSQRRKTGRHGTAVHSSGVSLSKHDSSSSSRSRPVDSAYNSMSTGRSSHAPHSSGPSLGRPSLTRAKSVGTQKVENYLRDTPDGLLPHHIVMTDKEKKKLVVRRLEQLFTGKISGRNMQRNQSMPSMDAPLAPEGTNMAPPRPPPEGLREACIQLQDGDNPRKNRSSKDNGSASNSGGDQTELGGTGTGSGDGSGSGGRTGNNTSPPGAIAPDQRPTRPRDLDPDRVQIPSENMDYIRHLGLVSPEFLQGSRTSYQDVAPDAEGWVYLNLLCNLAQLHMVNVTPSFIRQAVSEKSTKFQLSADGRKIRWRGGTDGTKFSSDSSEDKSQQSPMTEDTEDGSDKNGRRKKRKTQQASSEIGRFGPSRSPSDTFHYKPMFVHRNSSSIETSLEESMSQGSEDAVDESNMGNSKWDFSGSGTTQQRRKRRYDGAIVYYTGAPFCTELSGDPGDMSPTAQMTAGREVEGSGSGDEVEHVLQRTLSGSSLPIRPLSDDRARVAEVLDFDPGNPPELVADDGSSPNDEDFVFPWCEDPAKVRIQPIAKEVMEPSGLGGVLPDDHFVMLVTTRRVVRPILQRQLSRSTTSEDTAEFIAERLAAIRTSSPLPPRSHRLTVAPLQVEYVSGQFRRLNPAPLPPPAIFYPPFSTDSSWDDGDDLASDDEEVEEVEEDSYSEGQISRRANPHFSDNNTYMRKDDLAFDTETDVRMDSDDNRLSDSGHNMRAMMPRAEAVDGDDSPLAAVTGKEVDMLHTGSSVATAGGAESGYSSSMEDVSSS

binding [1]: binds weakly
binding [2]: no binding
Substance: White Collar-1 (WC-1) (from UniProt Q01371 1-1167)
